From PubChem BioAssay AID624417 (National Center for Advancing Translational Sciences (NCATS), 2012)
The whole screen tested about 410,000 compounds, of which about 6,400 (1.6%) were called active. This list was built around the results that the source calls inconclusive (neither active nor inactive); the mix of calls is not that of the screen. The call rests on the fitted dose curve; in most records, active means well fitted inhibition curve with a large enough effect; inconclusive means small, poorly fitted or top-dose-only effect; inactive means no such curve, though single readings can be large or run the other way. No potency is given beside an inconclusive call; the fits are too rough.

Target: Glucagon-like peptide 1 receptor (Homo sapiens) (UniProt P43220)
Assay: qHTS of GLP-1 Receptor Inverse Agonists (Inhibition Mode); further: nearly all actives have a fitted effect of over 55% in size
Settings: HEK293 GLP-1R CRE-luciferase, luminescence, 24 h, GLP-1R form is constitutively active; activity change, negative = inhibition: at 38.3 µM (top of the series) unless noted
How it was run: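 Inverse agonists were sought by their lowering of basal cAMP reporter luciferase output in HEK293 cells stably carrying constitutively active human GLP-1R, after 24 h compound treatment.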
On the % scale 0 is the no-effect control and ±100 the full control effect; potency means the concentration at half of the fitted maximal effect; tags describe the fitted curve by direction and shape.

Sequence of UniProt P43220 (P43220 whole entry, looked up): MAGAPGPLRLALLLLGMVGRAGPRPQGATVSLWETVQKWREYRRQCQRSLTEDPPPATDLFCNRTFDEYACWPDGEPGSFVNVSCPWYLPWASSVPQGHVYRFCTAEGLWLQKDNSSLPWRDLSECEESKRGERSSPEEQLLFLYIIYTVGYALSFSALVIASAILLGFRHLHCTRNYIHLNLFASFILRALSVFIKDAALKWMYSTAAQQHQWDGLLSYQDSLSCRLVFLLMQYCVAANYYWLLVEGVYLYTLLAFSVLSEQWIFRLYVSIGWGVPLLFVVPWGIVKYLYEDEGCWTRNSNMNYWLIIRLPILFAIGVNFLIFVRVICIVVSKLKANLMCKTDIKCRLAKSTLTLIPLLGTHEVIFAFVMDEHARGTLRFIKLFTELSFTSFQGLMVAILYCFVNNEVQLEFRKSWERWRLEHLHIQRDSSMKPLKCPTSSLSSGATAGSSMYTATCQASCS

Structure (SMILES)	Potency	activity change, negative = inhibition
Cc1ccc(C(=O)OCC(=O)Nc2ccc(C)c(S(=O)(=O)N3CCCCC3)c2)o1	inconclusive [inhibitor, single point]	–
Oc1ccc(CNc2ccccc2F)c2cccnc12	inconclusive [inhibitor, partial curve]	–
COc1ccccc1NC(=O)CSc1nc(-c2ccc(C(C)(C)C)cc2)c(C#N)c(=O)[nH]1	inconclusive [inhibitor, single point]	–
O=C(NCCn1ccc2ccccc21)c1ccc(Cl)cc1	inconclusive [inhibitor, single point]	–
S=C(NCCc1ccccc1)N/N=C/c1cccs1	inconclusive [inhibitor, full curve, poor fit]	–
CCc1ccccc1OCC(=O)Nc1ccc(S(=O)(=O)Nc2nc(C)cc(C)n2)cc1	–	inactive: 10.6%
CCCN(CC1CC1)C(=O)CSc1nnc(-c2cc(-c3cccs3)nc3ccccc23)o1	inconclusive [inhibitor, full curve, poor fit]	–
CC1=C(C(=O)N(C(C)C)C(C)C)CC(CC(=O)NC2CCCC2)C(=O)N1Cc1ccc(C(C)(C)C)cc1 (configuration not stated)	inconclusive [inhibitor, partial curve]	–
Cc1ccc2c(c1)C1CN(C)CCC1N2Sc1ccccc1[N+](=O)[O-] (configuration not stated)	inconclusive [inhibitor, partial curve, poor fit]	–
CCOc1cc(/C=N/Nc2nc3ccccc3[nH]2)cc(Br)c1OCC(=O)N(C)C	inconclusive [inhibitor, single point]	–
CC(C)Cc1ccc(C(C)C(=O)OCC(=O)c2c[nH]c3ccccc23)cc1 (configuration not stated)	inconclusive [inhibitor, single point]	–
COc1cccc(NC(=O)c2cc(-c3ccc(C)o3)nc3ccccc23)c1	–	inactive: 6.58%
CC(=O)Nc1ccc(Oc2nc(-c3ccccn3)nc3ccccc23)cc1	inconclusive [inhibitor, partial curve, poor fit]	–
COC(=O)c1cc(COc2ccc3oc(C)c(C(=O)OC)c3c2)c(C)o1	–	inactive: -0.198%
COCc1ccc(C(=O)Nc2cccc(S(=O)(=O)N(C)c3ccccc3)c2)cc1	inconclusive [inhibitor, partial curve, poor fit]	–
O=C(NCc1ccco1)C1(c2ccc(Cl)cc2)CCCC1	inconclusive [inhibitor, single point]	–
COc1cccc(C(=O)Nc2c(C(=O)N3CCN(c4ccc(F)cc4)CC3)oc3ccccc23)c1	inconclusive [inhibitor, full curve]	–
